This passage reports GI50 and TGI results from PubChem BioAssay (NCI).

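Interpolation was linear, between the two tested concentrations surrounding the appropriate level; five concentrations were tested over 48 hours in 96-well plates. GI50 is the concentration that inhibits growth by half. Definition used: TGI = concentration required for complete inhibition of growth.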

This assay concerns NCI-H322M lung. Nature of the assay: NCI anticancer screen, dose series, 48 h.

For the compound `C/C(=N\Nc1ccc(S(N)(=O)=O)cc1)c1ccc(N=Nc2c(Nc3ccccc3)[nH][nH]c2=O)cc1`, the GI50 is 3.72 µM and the TGI came out at 15.2 µM.
The corresponding values for `CC[C@]12C=CCN3CC[C@]4(C(=C(C(=O)OC)C1)Nc1cc(OC)c([C@@H]5[C@H]6O[C@H]6[C@@]6(CC)CC(C(=O)OC)=C7Nc8cc(O)ccc8[C@@]78CCN5[C@@H]68)cc14)[C@@H]32` are 11.1 µM and above 56.5 µM.
